# Assay results from the supplement of paper PMC4166925.
# ± gives the standard deviation of the averaged measurements. The full ranking holds about 33,000 sequences; the median of “E-score (dimensionless, -0.5 to 0.5)” is about -0.049, and the highest 2% start at about 0.37. This is one part of the list.
# System: T1, PmTbr T-box DNA-binding domain (GST fusion)
# T1 sequence: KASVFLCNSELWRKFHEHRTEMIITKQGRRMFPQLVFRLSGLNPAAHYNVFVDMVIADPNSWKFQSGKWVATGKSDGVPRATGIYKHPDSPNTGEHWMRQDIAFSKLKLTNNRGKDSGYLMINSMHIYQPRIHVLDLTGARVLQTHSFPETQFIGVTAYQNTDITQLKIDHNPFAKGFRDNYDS
# Assay: PBM E-score of 8-mer (E-score (dimensionless, -0.5 to 0.5)); Tbr is Tbrain of the sea star Patiria miniata (Pm) or the sea urchin Strongylocentrotus purpuratus (Sp); higher = stronger binding preference; most listed sequences are background and not binding sites
# Details: the construct has about 5 more residues each side
# Description: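 Universal protein-binding microarray (Agilent AMADID 016060, 60-bp probes with a 35-bp variable region) incubated with 200 nM GST-fused Patiria miniata Tbr T-box DNA-binding domain (residues 272-466) in PBS pH 7.5. Scored for every ungapped 8-mer (given with its reverse complement) by the Universal PBM Analysis Suite as E-score (modified Wilcoxon-Mann-Whitney enrichment, range -0.5 to 0.5; >0.45 counts as bound) and Z-score of median probe intensity. Two replicate arrays (datasets 1 and 2).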
# 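Also: 200 nM protein in PBS on universal arrays averaged over duplicate arrays.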
row,Sequence,PBM E-score of 8-mer
1,CGTCTCTC,-0.0954 ± 0.065
2,ACCGGTTG,-0.00328 ± 0.0079
3,ACTCTTCA,0.0433 ± 0.026
4,AACTCTTG,-0.127 ± 0.013
5,AACACGGC,0.162 ± 0.017
6,AGTCTGGG,-0.241 ± 0.012
7,ATAAGGCC,-0.236 ± 0.055
8,AGCAATGC,-0.245 ± 0.029
9,AGATGGGA,-0.103 ± 0.051
10,AGTCGATA,0.147 ± 0.016
11,AGACAGAT,0.0227 ± 0.038
12,TGTCATAA,0.313 ± 0.013
13,GCGACTCC,0.129 ± 0.013
14,ATTCCTAA,-0.201 ± 0.082
15,CTCTGCAA,-0.153 ± 0.011
16,AAACGAAG,-0.193 ± 0.039
17,CGACGTTC,-0.118 ± 0.032
18,GATCAAAA,-0.0678 ± 0.011
19,GTGCGCCA,0.0331 ± 0.033
20,TGGCTAAA,-0.229 ± 0.036
21,GTAAAAAA,-0.0133 ± 0.15
22,ACTCCTCG,0.219 ± 0.032

row,Sequence,PBM E-score of 8-mer
1,ACAGTGCG,0.251 ± 0.025
2,GAGCGATA,0.0896 ± 0.013
3,GCGCACAA,-0.101 ± 0.045
4,AAGAATAT,-0.29038 ± 4.2e-05
5,CTAGTTGC,0.117 ± 0.043
6,AGTCGTTA,0.0549 ± 0.084
7,CGTCCCCC,-0.328 ± 0.11
8,ACGGTGTA,0.16 ± 0.0067
9,ATAATCGG,-0.0796 ± 0.0029
10,GCGGAAAC,0.107 ± 0.023
11,ATACCATC,-0.234 ± 0.068
12,CCTTGTTA,0.126 ± 0.011
13,ATCTGATG,-0.119 ± 0.0066
14,GTATCTAA,-0.138 ± 0.028
15,GAACATAC,-0.0947 ± 0.0069
16,ACAAAAAC,0.0645 ± 0.095
17,GGCAACAC,0.38 ± 0.0047
18,AGGCAGTA,-0.128 ± 0.0066
19,TAACGAAA,-0.0105 ± 0.087
20,TCCGTACA,-0.207 ± 0.008
21,GACTACAA,-0.133 ± 0.02
22,ACGAGCGA,0.0487 ± 0.042

row,Sequence,PBM E-score of 8-mer
1,GAATGGCA,0.00346 ± 0.0012
2,CAGGAGGA,-0.126 ± 0.0036
3,CGCAGATA,-0.0245 ± 0.036
4,ATCTCGAC,-0.0257 ± 0.043
5,AAATTTAC,0.1 ± 0.031
6,GAAAAACC,0.112 ± 0.065
7,CTCGGTGC,-0.0448 ± 0.12
8,CGCACTGC,0.0715 ± 0.075
9,AAGCGGGG,-0.255 ± 0.0093
10,CGTTTAAG,-0.081 ± 0.081
11,ACGCAGGG,0.022 ± 0.024
12,AACCATCG,-0.0291 ± 0.073
13,AGCTCAGC,-0.0662 ± 0.065
14,GGTACCGA,0.0175 ± 0.024
15,CACAGCTG,0.296 ± 0.0054
16,CTCACGGC,0.079 ± 0.024
17,ATTGTACC,-0.1948 ± 0.0018
18,TACGCCGA,-0.22 ± 0.099
19,GGCACTTA,0.309 ± 0.045
20,AAATAGGG,-0.0426 ± 0.12
21,AGTCTTAG,-0.0345 ± 0.08
22,CAGTTAGG,-0.0835 ± 0.0084

row,Sequence,PBM E-score of 8-mer
1,ACCTTGAG,0.132 ± 0.033
2,ACCAGGGT,0.0951 ± 0.014
3,CAGAATGG,-0.0745 ± 0.015
4,GGGTAAAC,0.0588 ± 0.025
5,GAACAGTA,-0.0332 ± 0.032
6,CCGGCCCC,-0.24 ± 0.058
7,GTTATACA,0.0491 ± 0.056
8,AACTGTAC,-0.0664 ± 0.015
9,GTGAATCA,0.0963 ± 0.0088
10,AGCGAATA,0.0489 ± 0.053
11,CTGATGTA,-0.109 ± 0.032
12,TCAATGCA,-0.268 ± 0.037
13,AAATGTGT,0.432 ± 0.011
14,AGACGTCT,-0.325 ± 0.059
15,AGTTCGAG,0.0334 ± 0.076
16,AAATTCAC,0.263 ± 0.021
17,CACCGAAG,0.0253 ± 0.032
18,ATGATCCC,-0.257 ± 0.033
19,GATAAATA,-0.0627 ± 0.026
20,GGCTAAAC,-0.21 ± 0.0053
21,TGGTTGAA,-0.15 ± 0.054
22,GGGCGCAA,0.0355 ± 0.036

row,Sequence,PBM E-score of 8-mer
1,GGATTATA,-0.0412 ± 0.053
2,AACGTCAC,0.242 ± 0.0035
3,ATCATGCG,0.0708 ± 0.073
4,CGCAAGGC,0.111 ± 0.11
5,ATCCTACA,-0.198 ± 0.0028
6,CGGAGCAC,-0.0608 ± 0.012
7,ACGGGGAG,0.0327 ± 0.077
8,CGTAACAG,0.0681 ± 0.0039
9,ATTCAAAG,-0.157 ± 0.0024
10,CGCGGGTC,0.111 ± 0.12
11,CAACGACA,0.208 ± 0.018
12,CCTTAGTA,-0.208 ± 0.024
13,CAGACCTA,-0.199 ± 0.026
14,AACTCCGC,-0.137 ± 0.032
15,CTCGAAAA,-0.0769 ± 0.076
16,CAAAAACG,-0.0281 ± 0.015
17,CAACCAAG,-0.22 ± 0.013
18,CGGGGGCA,-0.118 ± 0.011
19,GAACGATA,-0.0973 ± 0.061
20,ACATGAGC,0.0181 ± 0.055
21,GACGAATC,0.149 ± 0.019
